Results from ChEMBL document CHEMBL4888484, “Replenishing the malaria drug discovery pipeline: Screening and hit evaluation of the MMV Hit Generation Library 1 (HGL1) against asexual blood stage Plasmodium falciparum ,using a nano luciferase reporter read-out” (2022).
Out of some 150,000 compounds screened, about 540 (0.36%) showed an effect of 50% or more. The list shows a part of the results.

tested on: Plasmodium falciparum; assay: Primary screen in NF54 nanoGlo assay, in single point, at 2uM, 72h; a lower Z score goes with more inhibition; type: functional, Erythrocyte; conditions: timepoint 72 hour

Compound | % Inhibition [%] | Z score
Cc1n[nH]c(C)c1CNC(=O)N1C[C@H]2CC=CC[C@H]2C1 | -20 | 3.48
CCC[C@@H](C#N)NC(=O)Cc1ccc(C)s1 | -8 | 1.45
Fc1ccccc1-c1ccc([C@H]2c3nc[nH]c3CCN2Cc2ncc[nH]2)o1 | 11 | -2.03
Cc1cnc(C(=O)N2CCC[C@H]2c2ccnn2C)c(C)c1 | -7 | 0.85
CCCN(CCC)C(=O)c1cc(-c2cccc(F)c2)n2nc(C(C)(C)C)cc2n1 | -10 | 1.11
O=C(c1ccc(Cl)cc1Br)N1CC[S+]([O-])CC1 | -1 | 0.15
CCCc1nnc(NC(=O)CN2CC(O)C2)s1 | -8 | 1.03
CCC(=O)N(CCOC)Cc1c(-c2cccc(C)c2)noc1N1CCOCC1 | -17 | 1.67
C[C@@H](CN(C)CC1(CO)CCC1)c1ccccc1 | -2 | 0.42
O=C(Cn1cnc2c(-c3ccccc3)nsc2c1=O)NCCc1ccc(Cl)cc1 | -3 | 0.52
CNC(=O)CN1CC=C(C(F)(F)F)CC1 | -8 | 1.56
Cc1ccc(C(=O)N2CCC(n3cnnc3-c3ccccc3)CC2)cc1 | 0 | -0.05
CCc1ncc(C(=O)Nc2nc3ccc(Br)cc3n2CC)s1 | 21 | -2.36
Cc1cnc(C(=O)N(CCC(C)C)C2CC2)cn1 | 0 | -0.01
FC(F)(F)Cn1ccnc1-c1ccccn1 | -5 | 0.83
CCO[C@H]1CN(C(=O)CCS(=O)(=O)c2ccccc2)C[C@@H]1O | -5 | 0.86
NC(=O)CC[C@@H]1N[C@]2(C(=O)Nc3ccccc32)[C@@H]2C(=O)N(c3ccc(Cl)cc3)C(=O)[C@H]12 | 2 | -0.47
Cc1ccccc1CC(=O)N[C@H]1CC(=O)N(CCCc2ccccc2)C1 | -8 | 1.45
CN(C)c1ccc(-c2nnc(-c3ccc(Cl)cc3)o2)cc1 | -51 | 5.95
O=C1Nc2ccc(C3CCCC3)cc2C1=O | -1 | 0.09
Cc1ccccc1[C@H]1C[C@@H](O)[C@@H](O)[C@@H]1NC(=O)c1ccccn1 | 35 | -3.91
COc1cc(-c2n[nH]c(C)c2NC(=O)Nc2cccc(Cl)c2)cc(OC)c1OC | 0 | 0.03

Compound | % Inhibition [%] | Z score
COc1ccc(-n2cnnc2-c2[nH]cnc2C)cc1 | -3 | 0.61
O=C(NCc1cccc(F)c1F)N1CCCCCCC1 | 10 | -1.23
CC(CC(=O)N1CCCC(S(C)(=O)=O)C1)c1ccc(F)cc1 (configuration not stated) | -13 | 1.79
Cc1c([C@H](C)NC(=O)N(CC2CCC2)C(C)C)cnn1C | -11 | 1.43
COCc1cccc(C(=O)NCc2csc3c2CCCC3)n1 | -14 | 2.96
COc1ccc(CNC(=O)CN2C(=O)C(C)(C)c3cc(Cl)ccc32)cc1 | -9 | 1.51
CN(CCN(C)C1CCCCC1)C(=O)c1cnn2cccnc12 | 14 | -1.86
Nc1nc2c(s1)C[C@@H](NC(=O)C(O)CCc1ccccc1)CC2 (some centres not stated) | -9 | 1.6
CN(C(=O)Cc1ccnc(O)c1Br)c1ccccc1F | 2 | -0.34
C[C@@H](CC(=O)N1CCC(NC(=O)c2ccncc2)CC1)c1ccc(F)cc1 | -8 | 1.06
COc1ccc(-c2noc(CCN(C(=O)c3ccco3)[C@@H](C)c3ccccc3)n2)cc1OC | -13 | 1.81
CCOc1ccc(N2C(=O)N[C@H]3C[C@@]2(C)Oc2c(OC)cc(Br)cc23)cc1 | -7 | 1.1
O=C(CN1CC[C@H](c2ccccc2)C1)N1CCCN(C2CCCCC2)CC1 | 9 | -1.63
CCCCc1nc(C)cc(NCCNC(=O)N2CCOCC2)n1 | -1 | 0.24
COC1CC2CCC(C1)N2S(=O)(=O)c1ccc(F)c(C)c1 (configuration not stated) | -19 | 2.41
COc1ccc([C@H](c2sc3ncnn3c2O)N2CCCCCC2)c(OC)c1OC | 6 | -0.74
Cc1noc(C)c1C(=O)N(CCc1ccccc1)c1ccccc1 | -13 | 1.94
Cc1cc(C)nc(O[C@H]2CCN(C(=O)c3ncccn3)C2)n1 | -10 | 1.52
CC(C)(C)OC(=O)NC1CCCCCC1C(=O)O (configuration not stated) | 31 | -3.45
O=C(NCC1CC12CCc1ccccc12)N(CCO)C1CC1 (configuration not stated) | -9 | 1.42
CCC(=O)N1C[C@H](NC(=O)OC(C)(C)C)[C@@H](c2ccccc2F)C1 | -4 | 0.84
COc1ccccc1Nc1ccccc1C(=O)N(C)c1nncs1 | -1 | 0.07

Compound | % Inhibition [%] | Z score
CC(=O)N1CCC2(CC1)CN(Cc1ccccc1)C[C@H](C)O2 | -3 | 0.6
Cc1nc([C@H](C)NC(=O)CNC(=O)N(C)C)n[nH]1 | -8 | 1.31
COc1ccc(-c2cnn(CC(=O)Nc3cc(F)cc(F)c3)c(=O)n2)cc1 | 4 | -0.52
Cc1nc(C(C)C)sc1[C@H](C)N(C)Cc1ccsc1C(=O)O | -7 | 1.15
Cc1nnc(COc2cccc3c2OCCO3)s1 | -12 | 2.16
c1ncc(CN2CCC(CCCN3CCOCC3)CC2)s1 | -4 | 0.4
O=C(CN1C(=O)NC2(CCCCCCC2)C1=O)Nc1ccccc1Br | -6 | 0.91
CC(C)CCNC(=O)[C@]1(C)CN(S(=O)(=O)c2ccccc2)CC(=O)N1C1CCCC1 | -22 | 2.8
CCCCn1nnnc1CN1CCC[C@H]1c1noc(CC)n1 | -17 | 1.43
CC(=O)Nc1ccc2c(c1)C(=O)N(C)c1ccccc1O2 | -12 | 1.4
Cc1[nH]c(=O)[nH]c(=O)c1CC(=O)N1CCC[C@@]2(CCC(=O)N(CC3CC3)C2)C1 | 0 | 0.04
COc1cc(N2CCC(CNC(=O)c3cc(C)on3)CC2)nc(OC)n1 | -7 | 0.86
Cc1cnc2c(C(=O)N3CC4(CCOCC4)CC[C@@H]3CO)cnn2c1 | -11 | 1.14
CC[C@H](NC1CCOCC1)C(C)(C)c1ccccc1 | -3 | 0.51
COCCCN(Cc1ccc(C(O)(c2ccc(OC)cc2)c2ccc(OC)cc2)o1)Cc1ccccc1OC | 3 | -0.38
Cc1nc(CNC2(c3c(F)cccc3F)CCC2)[nH]c1C | -11 | 1.15
CCOc1ccccc1COC(=O)c1cnc2c(c1)ncn2C | -9 | 1.1
COCC(=O)N1CCN(c2ccc(F)cc2)C(=O)[C@@H]1C | -14 | 2.74
Cc1ccc(S(=O)(=O)NC[C@H]2O[C@@H](CC(=O)N3CCN(c4ccccc4)CC3)[C@H](O)[C@@H]2O)cc1 | 5 | -0.83
Cc1c(Cl)cccc1C(=O)N(C)Cc1cnccn1 | 2 | -0.4
Cc1cc(C)n(-c2cc(N3CC(C(=O)Nc4ccc(S(N)(=O)=O)cc4)C3)ncn2)n1 | 14 | -1.82
Cc1ccc(C2(c3noc(COc4cccnc4N)n3)CCCC2)cc1 | -11 | 1.82

Compound | % Inhibition [%] | Z score
Cc1cccc(N2CCN(C(=O)Nc3ccn(CCC#N)n3)CC2)c1C | -8 | 1.28
CS(=O)(=O)NC(=O)c1ccc(Cl)cc1F | -23 | 2.53
COCCN(C(=O)c1cnn(-c2ccccc2)n1)C1CC1 | -7 | 0.66
C1=CCC(NC(=NC[C@H]2CCCCO2)NCc2nc(C3CC3)no2)C1 | -2 | 0.46
CCn1ncc(C2=NO[C@H](C(=O)N3CCN(c4ccccc4)CC3)C2)c1C | -10 | 1.39
Cc1ccc(CNC(=O)c2ccc[n+]([O-])c2)s1 | 7 | -0.93
CC(C)Oc1cc(N2CCC[C@H](c3nccn3CC(N)=O)C2)nc(N)n1 | -4 | 0.62
CCCS(=O)(=O)N1CCC[C@H](C(=O)Nc2nc(-c3c(F)cccc3F)cs2)C1 | -3 | 0.49
COc1cccc(N2CCC[C@H](NCc3cn(C(C)(C)C)nn3)C2)c1 | -6 | 0.62
Cc1nc(-c2cnn(C(C)C)c2)n(CC(F)(F)F)n1 | -7 | 1.3
CC(=O)Nc1ccc(Br)cc1N | -7 | 0.6
Cc1nnc(CC(=O)NC[C@H]2CCC[C@@H]2O)s1 | 5 | -0.64
C[C@@H](Cc1ccc(F)cc1)Nc1ccnn1C | -1 | 0.11
COc1ccc(OC)c(S(=O)(=O)N2CCCCC[C@H]2c2cccc(C)c2)c1 | -1 | 0.19
O=C(O)[C@H]1CN(C(=O)c2c(F)cccc2F)C[C@@H]1c1ccc2c(c1)OCO2 | -2 | 0.21
Cc1c(S(=O)(=O)NCc2ccc(O)cc2O)cnn1C | -13 | 1.07
CC(=O)N1CCCN(C(=O)c2n[nH]c3ccccc23)CC1 | -5 | 0.79
c1cc(CN2CCCO[C@@H](CN3CCOCC3)C2)ccn1 | -6 | 0.97
Cc1noc(CNC(=O)C2CCN(C(=O)Cc3cccs3)CC2)n1 | -3 | 0.47
Cc1ccn2c(=O)c(C(=O)NCc3ccccc3)c(O)nc2c1 | -2 | 0.29
